Measured values taken from patent US20260256822A1, “ENTRY-MODULATING AGENTS AND USES THEREFOR” (priority 2022, published 2026).

System: P. falciparum strain Pf3D7^0087/N9
Conditions: in vivo

For `CCC(C)[C@H]1O[C@]2(CC[C@@H]1C)C[C@@H]1C[C@@H](C/C=C(\C)[C@@H](O[C@H]3C[C@H](OC)[C@@H](O[C@H]4C[C@@H](OC)[C@H](O)[C@@H](C)O4)[C@H](C)O3)[C@@H](C)/C=C/C=C3\CO[C@@H]4[C@H](O)C(C)=C[C@@H](C(=O)O1)[C@]34O)O2` (some centres unmarked) [Ivermectin], the “reduction of parasitemia of the mice” value was 26% and the “parasitemia in humanized NSG mouse model” value (ip, 5 mg/kg) was “reduces parasitemia”.
